# Experimental data from PMC2185562 (The Journal of Cell Biology, 2000).
# B1: Recombinant NH2-terminal fragment […] of ezrin, biotinylated (domain or fragment)
# chain: not shown
# Tests used:
# VSV G-tagged T567A ezrin = VSV G-tagged T567A ezrin (UniProt P15311 1-586, T567A); experiment: far-Western, overlay or dot blot
# [1] = target: VSV G-tagged wild-type ezrin (UniProt P15311 1-586); experiment: far-Western, overlay or dot blot
# Chain of VSV G-tagged T567A ezrin (P15311 whole entry T567A): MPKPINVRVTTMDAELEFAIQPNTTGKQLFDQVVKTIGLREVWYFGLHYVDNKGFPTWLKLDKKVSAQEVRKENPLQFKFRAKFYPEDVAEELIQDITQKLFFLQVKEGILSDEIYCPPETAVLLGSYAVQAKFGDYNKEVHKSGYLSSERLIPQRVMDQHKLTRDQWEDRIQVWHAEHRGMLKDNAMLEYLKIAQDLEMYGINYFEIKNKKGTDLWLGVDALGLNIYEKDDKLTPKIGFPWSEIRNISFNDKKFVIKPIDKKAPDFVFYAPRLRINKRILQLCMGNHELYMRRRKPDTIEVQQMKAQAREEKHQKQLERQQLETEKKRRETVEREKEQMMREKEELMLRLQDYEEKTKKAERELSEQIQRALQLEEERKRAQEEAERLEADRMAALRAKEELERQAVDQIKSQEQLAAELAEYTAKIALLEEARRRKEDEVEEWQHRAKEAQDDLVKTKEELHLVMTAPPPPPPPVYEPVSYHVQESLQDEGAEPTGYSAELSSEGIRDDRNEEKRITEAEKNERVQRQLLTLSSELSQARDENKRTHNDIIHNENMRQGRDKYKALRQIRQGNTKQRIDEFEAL
binder,measurement,setting,value
B1,binding result,VSV G-tagged T567A ezrin,binds
same,binding result,[1],binds
